The supplement of paper PMC9446081
Screen size: about 39,000 compounds; about 220 (0.56%) showed activity. This is one part of the list.

Test system: Escherichia coli K-12 BW25113
Assay: relative growth (OD600 normalised to plate interquartile mean) (fraction); higher = less growth inhibition, active = 0.2 or less
Settings: 50 µM; LB; incubation time: overnight (16-24 h)
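Also: static incubation at 37 °C against the wild-type strain, values averaged over two biological replicates.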

Row | Structure (SMILES) | relative growth
1 | C[C@@H](O)C#Cc1ccc2c(c1)O[C@@H](CN(C)C(=O)C1CCCCC1)[C@@H](C)CN([C@@H](C)CO)S2(=O)=O | inactive: 0.995
2 | Cc1noc(C)c1S(=O)(=O)Nc1ccc2c(c1)C(=O)N([C@@H](C)CO)C[C@H](C)[C@H](CN(C)Cc1ccccc1)O2 | inactive: 1.01
3 | COc1cccc(S(=O)(=O)N2C[C@H](O)COC[C@@H]3O[C@H](CC(=O)NCCCN4CCOCC4)CC[C@H]32)c1 | inactive: 0.916
4 | C[C@@H]1CCCCO[C@@H](CN(C)Cc2ccc(Cl)c(Cl)c2)[C@@H](C)CN([C@H](C)CO)C(=O)c2cc(NC(=O)CCC(F)(F)F)ccc2O1 | inactive: 0.896
5 | Cc1ccc(C(=CCN2CCCC2)c2ccccn2)cc1.Cl | inactive: 0.878
6 | CC(=O)N1CCN(C(=O)C(=O)NC[C@H](c2ccc(N(C)C)cc2)N2CCOCC2)CC1 | inactive: 0.989
7 | CC(=O)N(C)C[C@H]1Oc2ncc(C#CC(C)(C)O)cc2C(=O)N([C@H](C)CO)C[C@H]1C | inactive: 1
8 | C[C@H]1CN([C@@H](C)CO)C(=O)c2cc(-c3cccnc3)cnc2O[C@H]1CN(C)Cc1ccc(Oc2ccccc2)cc1 | inactive: 1.03
9 | C[C@@H]1CN([C@H](C)CO)S(=O)(=O)c2ccc(-c3ccccc3F)cc2O[C@@H]1CN(C)S(C)(=O)=O | inactive: 1.03
10 | O=C(C[C@H]1C=C[C@@H](NC(=O)c2ccc(F)cc2)[C@H](CO)O1)NCc1ccncn1 | inactive: 0.996
11 | O=C1O[C@@H](c2ccccc2)[C@@H](c2ccccc2)N2[C@@H](c3ccc(OCCO)cc3)[C@]3(C(=O)Nc4ccc(C#CC5(O)CCCCCC5)cc43)[C@@H](C(=O)N3CCCCCCC3)[C@H]12 | inactive: 1.05
12 | CC(C)NC(=O)Nc1cccc2c1O[C@H](CN(C)C(=O)NC1CCCCC1)[C@@H](C)CN([C@@H](C)CO)C2=O | inactive: 0.969
13 | CC(C)NC(=O)Nc1ccc2c(c1)CC(=O)N([C@@H](C)CO)C[C@@H](C)[C@H](CN(C)S(=O)(=O)c1ccccc1)O2 | inactive: 1.01
14 | O=C(C[C@@H]1CC[C@H]2[C@@H](COC[C@H](O)CN2S(=O)(=O)c2cccc(F)c2)O1)NCc1ccncn1 | inactive: 1.03
15 | C[C@@H]1CCCCO[C@H](CN(C)Cc2ccc(Cl)c(Cl)c2)[C@@H](C)CN([C@H](C)CO)C(=O)c2cc(NC(=O)c3ccncc3)ccc2O1 | inactive: 1.03
16 | C[C@@H]1CCCCO[C@@H](CN(C)C(=O)Nc2cccc3ccccc23)[C@@H](C)CN([C@H](C)CO)C(=O)c2cc(NS(=O)(=O)c3ccccc3)ccc2O1 | inactive: 1.01
17 | CNC[C@H]1OCCCC[C@H](C)Oc2ccc(NS(=O)(=O)c3c(C)noc3C)cc2C(=O)N([C@@H](C)CO)C[C@@H]1C | inactive: 0.989
18 | C[C@H]1CCCCO[C@H](CN(C)C(=O)Nc2cccc3ccccc23)[C@@H](C)CN([C@@H](C)CO)C(=O)c2cc(NS(=O)(=O)c3ccc(Cl)cc3)ccc2O1 | inactive: 1.03
19 | CC1(C)CN(C(=O)Cn2nccn2)C[C@]1(C)O | inactive: 0.983
20 | C[C@@H]1CCCCO[C@H](CN(C)C(=O)C2CCCCC2)[C@@H](C)CN([C@H](C)CO)C(=O)c2cc(NC(=O)Nc3cccc4ccccc34)ccc2O1 | inactive: 0.924

Row | Structure (SMILES) | relative growth
21 | C=CC[C@H](CC(=O)NCCO)C(=O)N[C@H](COC(=O)[C@@H](CC=C)CC(=O)OC(C)(C)C)Cc1c[nH]c2ccccc12 | inactive: 0.998
22 | C[C@H]1CN([C@@H](C)CO)C(=O)c2c(c3ccccc3n2C)-c2ccccc2CO[C@@H]1CN(C)C(=O)Nc1cccc(F)c1 | inactive: 1.01
23 | Cc1noc(C)c1S(=O)(=O)N(C)C[C@H]1Oc2ccc(NC(=O)Nc3ccccc3)cc2CC(=O)N([C@H](C)CO)C[C@H]1C | inactive: 1.03
24 | C[C@H]1CN([C@@H](C)CO)C(=O)Cc2cc(NC(=O)c3ccncc3)ccc2O[C@@H]1CN(C)S(C)(=O)=O | inactive: 1.01
25 | C[C@H]1CN([C@@H](C)CO)C(=O)c2cccc(NC(=O)c3cnccn3)c2O[C@H]1CN(C)C(=O)NC1CCCCC1 | inactive: 1.02
26 | COc1ccc(S(=O)(=O)N(C)C[C@@H]2Oc3ccc(NS(=O)(=O)c4cn(C)cn4)cc3C(=O)N([C@@H](C)CO)C[C@H]2C)cc1 | inactive: 0.989
27 | C[C@H](CO)N1C[C@H](C)[C@H](CN(C)Cc2ccccc2)OCCCC[C@H](C)Oc2ccc(NC(=O)c3ccccc3)cc2C1=O | inactive: 1.01
28 | C[C@H](CO)N1C[C@H](C)[C@H](CN(C)Cc2ccncc2)Oc2c(NS(=O)(=O)c3cccs3)cccc2C1=O | inactive: 0.945
29 | O=C(NC1CCCCC1)NC1CCCCC1 | inactive: 1.01
30 | CC12CCC3C(=CCc4cc(O)ccc43)C1CCC2=O (stereo not given) | inactive: 1.03
31 | C[C@@H]1CN([C@@H](C)CO)C(=O)c2cc(NC(=O)CCC(F)(F)F)ccc2O[C@H]1CN(C)S(=O)(=O)c1cn(C)cn1 | inactive: 0.996
32 | CCO[C@@H]1OC(C(=O)N2CCN(Cc3ccccc3)CC2)=C[C@H](c2cn(C(C)=O)c3ccccc23)[C@H]1CCCOC(=O)NCCCCCC(=O)NO | inactive: 1.01
33 | CC(=O)N[C@H](C)c1cn(C)nc1C | inactive: 1.03
34 | C[C@H]1CCCCO[C@H](CN(C)S(=O)(=O)c2cn(C)cn2)[C@@H](C)CN([C@@H](C)CO)C(=O)c2cc(NS(=O)(=O)c3cccs3)ccc2O1 | inactive: 0.986
35 | Cn1cnc(S(=O)(=O)N2C[C@@H](O)COC[C@H]3O[C@@H](CC(=O)NC4CCC4)CC[C@@H]32)c1 | inactive: 1.02
36 | COCC(=O)Nc1ccc2c(c1)OC[C@@H](C)N(Cc1cccc(F)c1)C[C@@H](C)[C@H](OC)CN(C)C2=O | inactive: 0.957
37 | COC(=O)c1c2oc(c1C(=O)OC)C(=O)N[C@H](Cc1ccccc1)Cn1cc(nn1)[C@@H](Cc1ccccc1)NC(=O)N[C@@H](CO)CC2 | inactive: 0.951
38 | C=C1CCC2C(CC2(C)C)C(=O)CCC1O (stereo not given) | inactive: 0.974
39 | C[C@@H]1CN([C@H](C)CO)C(=O)c2cccc(NC(=O)C3CCOCC3)c2O[C@@H]1CN(C)Cc1ccc(-c2ccccc2)cc1 | inactive: 1
40 | C[C@@H]1CCCCO[C@@H](CN(C)Cc2ccncc2)[C@@H](C)CN([C@H](C)CO)C(=O)c2cc(NC(=O)CCC(F)(F)F)ccc2O1 | inactive: 1.01

Row | Structure (SMILES) | relative growth
41 | C[C@@H]1CN([C@@H](C)CO)C(=O)c2cccc(NS(=O)(=O)c3ccc(F)cc3)c2O[C@H]1CN(C)Cc1ccncc1 | inactive: 1
42 | CN1C(=O)c2cc(NC(=O)c3cscn3)ccc2OC[C@@H]2O[C@@H](CC(=O)N3CCOCC3)CC[C@H]21 | inactive: 1.04
43 | O=C(O)CCCNc1n[nH]c(=O)[nH]c1=O | inactive: 0.997
44 | Cc1ccc(S(=O)(=O)N(C)C[C@H]2OCCCC[C@H](C)Oc3ccc(NC(=O)c4ccccc4)cc3C(=O)N([C@H](C)CO)C[C@@H]2C)cc1 | inactive: 1.03
45 | C[C@@H]1CCCCO[C@@H](CN(C)C(=O)CCCN(C)C)[C@@H](C)CN([C@H](C)CO)C(=O)c2cc(NC(=O)Nc3ccc(C(F)(F)F)cc3)ccc2O1 | inactive: 1.04
46 | COc1ccc(C(C)C(=O)c2ccc(O)cc2O)cc1 (stereo not given) | inactive: 0.856
47 | C[C@H]1CN([C@@H](C)CO)C(=O)Cc2cc(NC(=O)Nc3ccccc3)ccc2O[C@@H]1CN(C)S(=O)(=O)c1cn(C)cn1 | inactive: 0.946
48 | C[C@H](CO)N1C[C@H](C)[C@@H](CN(C)S(=O)(=O)c2cccs2)Oc2ccc(NS(=O)(=O)c3ccccc3)cc2CC1=O | inactive: 0.976
49 | C[C@H](CO)N1C[C@H](C)[C@@H](CN(C)S(C)(=O)=O)Oc2ccc(N(C)C)cc2C1=O | inactive: 0.9
50 | COc1ccc(CNC(=O)N(C)C[C@@H]2OCc3ccccc3-c3c(n(C)c4ccccc34)C(=O)N([C@@H](C)CO)C[C@@H]2C)cc1 | inactive: 0.989
51 | COc1ccc(NC(=O)N(C)C[C@@H]2OCCCC[C@@H](C)Oc3ccc(NC(=O)Nc4ccc5c(c4)OCO5)cc3C(=O)N([C@H](C)CO)C[C@H]2C)cc1 | inactive: 1.02
52 | CCCC(=O)Nc1ccc2c(c1)C(=O)N(C)C[C@H](OC)[C@@H](C)CN(Cc1ccc(-c3ccccn3)cc1)[C@H](C)CO2 | inactive: 1.05
53 | Cc1noc(C)c1S(=O)(=O)N(C)C[C@H]1Oc2ccc(NC(=O)NC3CCCCC3)cc2CC(=O)N([C@H](C)CO)C[C@H]1C | inactive: 0.991
54 | NCC(O)c1ccc(O)c(O)c1.O=C(O)C(O)C(O)C(=O)O (stereo not given) | inactive: 1.12
55 | COc1ccc(S(=O)(=O)N(C)C[C@@H]2OCCCC[C@@H](C)Oc3ccc(NC(=O)Nc4c(C)noc4C)cc3C(=O)N([C@H](C)CO)C[C@@H]2C)cc1 | inactive: 0.992
56 | C[C@@H]1CCCCO[C@@H](CN(C)C(=O)Nc2ccccc2)[C@H](C)CN([C@H](C)CO)C(=O)c2cc(NC(=O)c3ccncc3)ccc2O1 | inactive: 0.966
57 | C[C@@H]1CCCCO[C@@H](CN(C)Cc2ccc(C(F)(F)F)cc2)[C@H](C)CN([C@@H](C)CO)C(=O)c2cc(NS(C)(=O)=O)ccc2O1 | inactive: 0.968
58 | CC(C)C[C@H](NP(=O)(O)O[C@H]1O[C@@H](C)[C@@H](O)[C@@H](O)[C@@H]1O)C(=O)N[C@H](Cc1c[nH]c2ccccc12)C(=O)O | inactive: 0.974
59 | C[C@@H]1CCCCO[C@@H](CN(C)Cc2ccc(Cl)c(Cl)c2)[C@H](C)CN([C@@H](C)CO)C(=O)c2cc(NC(=O)C3CCCCC3)ccc2O1 | inactive: 0.996
60 | CN(C)C1CN(S(=O)(=O)CCC2CC2)C1 | inactive: 0.916
